Assay results reported in PubChem BioAssay (NCATS).
Values joined by “and” are separate entries in the source; they are usually repeats but may differ in a detail not shown here. Equal entries are not always repeated. The inconclusive results got no clear call from the source; some entries with a clear call stand among them for comparison. For some of these results: Where the call is inconclusive, the potency comes from a doubtful curve fit. For some of these results: “Side channel” marks fits to a control or component signal instead of the main read-out. Active and inactive are the calls of the source. Unless noted, the call rests on the fitted dose curve.

What was measured:
[1] = target: Peroxisome proliferator-activated receptor delta (Homo sapiens) (UniProt Q03181); test: qHTS assay for small molecule agonists of peroxisome proliferator-activated receptor delta signaling (AID 588534); conditions: HEK293T PPARdelta-UAS-bla, beta-lactamase ratio, 18 h; activation: at 76.7 µM (top of the series); further: potency means the concentration at half of the fitted maximal effect;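 on activation: 0% = DMSO basal wells and 100% = positive control agonist at 10 µM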
Summary of the method: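 Cells carrying a PPAR-delta beta-lactamase reporter were treated with compounds for 18 h at 37 °C in agonist mode. CCF4 fluorescence was read after 2 h; EC50 and efficacy from Hill fits.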

[2] = target: Peroxisome proliferator-activated receptor delta (Homo sapiens) (UniProt Q03181); test: qHTS assay for small molecule antagonists of peroxisome proliferator-activated receptor delta signaling (AID 588535; active means well fitted inhibition curve with a large enough effect in the signal ratio, with a control signal flat, not every such curve was filed as active; inconclusive means small, poorly fitted or top-dose-only effect, or effect the other way, or a change in a side signal; inactive means no such curve, though single readings can be large or run the other way; the % refers to the signal ratio; further: potency means the concentration at half of the fitted maximal effect); conditions: HEK293T PPARd-UAS-bla, beta-lactamase FRET ratio, 18 h; activity change, negative = inhibition: at 76.7 µM (top of the series) unless noted
Summary of the method: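 HEK293T PPAR-delta-UAS-bla cells, 4000/well, 2% charcoal/dextran FBS; 5 h 37 C; cpd titration; 18 h 37 C; CCF4 2 h RT; FI 460/530 nm; Hill fit → IC50, efficacy.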

[3] = target: Peroxisome proliferator-activated receptor gamma (Homo sapiens) (UniProt P37231); test: qHTS assay for small molecule agonists of peroxisome proliferator-activated receptor gamma signaling (AID 588536; active means well fitted curve in the direction sought with a large enough effect in the signal ratio, with a control signal flat, not every such curve was filed as active; inconclusive means small, poorly fitted or top-dose-only effect, or effect the other way, or a change in a side signal; inactive means no such curve, though single readings can be large or run the other way; the % refers to the signal ratio; further: potency means the concentration at half of the fitted maximal effect); conditions: HEK293 PPARg-UAS-bla, beta-lactamase ratio, 16 h; activation: at 76.7 µM (top of the series), percent of rosiglitazone response, DMSO as zero unless noted
Summary of the method: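 GeneBLAzer PPAR-gamma-UAS-bla HEK293 cells in 1% charcoal/dextran-treated FBS medium were treated 16 h at 37 C with compounds. Beta-lactamase activity was read by CCF4 ratio (460/530 nm). Response was normalized to 2 uM rosiglitazone (100%) and DMSO, then Hill-fitted for EC50 and efficacy.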

[4] = target: Peroxisome proliferator-activated receptor gamma (Homo sapiens) (UniProt P37231); test: qHTS assay for small molecule antagonists of peroxisome proliferator-activated receptor gamma signaling (AID 588537; active means well fitted inhibition curve with a large enough effect in the signal ratio, with a control signal flat, not every such curve was filed as active; inconclusive means small, poorly fitted or top-dose-only effect, or effect the other way, or a change in a side signal; the % refers to the signal ratio; further: potency means the concentration at half of the fitted maximal effect;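 further: reporter cells co-stimulated with 50 nM rosiglitazone agonist during compound treatment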; on activity, negative = inhibition: % of control where 0% means no effect); conditions: HEK293 PPARg-UAS-bla, beta-lactamase ratio, antagonist mode; activity, negative = inhibition: at 76.8 µM (top of the series)
Summary of the method: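 Antagonist mode, beta-lactamase reporter in HEK293; charcoal/dextran FBS 1%; 3000 cells/well, 37 C 6-6.5 h; cpd titration + rosiglitazone 50 nM final, 16 h 37 C; CCF4, 2 h RT; 460/530 nm; Hill fit → IC50, efficacy.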

[5] = qHTS assay for small molecule agonists of the antioxidant response element (ARE) signaling pathway (AID 651741; active means well fitted activation curve with a large enough effect in the signal ratio; inconclusive means small, poorly fitted or top-dose-only effect, or effect the other way, or a change in a side signal; the % refers to the signal ratio; further: potency means the concentration at half of the fitted maximal effect; on activation: % of control where 0% means no effect); conditions: HepG2 ARE-bla reporter, beta-lactamase FRET ratio, 16 h; activation: at 96 µM (top of the series) unless noted
Summary of the method: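 Quantitative HTS in HepG2 cells stably expressing an ARE-beta-lactamase reporter; 16 h compound exposure at 37 C, followed by 2 h room-temperature incubation with LiveBLAzer B/G FRET substrate and fluorescence measurement.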

[6] = qHTS assay for small molecule agonists of the antioxidant response element (ARE) signaling pathway measured by Nrf2-dependant transcriptional activity (AID 720636; active means well fitted curve in the direction sought with a large enough effect in the repeat runs; inconclusive means weak or mixed curves; inactive means no such curve, though single readings can be large; an effect the other way counts as inactive or inconclusive; further: potency means the concentration at half of the fitted maximal effect)
Summary of the method: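 Attachment 6 hr at 37 C, then compound versus DMSO vehicle for 16 hr in ARE-luc HepG2 cells (1% dialyzed FBS); luminescence recorded 30 min after ONE-Glo addition at room temperature.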

[7] = target: Glucocorticoid receptor (Homo sapiens) (UniProt P04150); test: qHTS assay for small molecule agonists of glucocorticoid receptor signaling (AID 588532; active means well fitted curve in the direction sought with a large enough effect in the signal ratio, with a control signal flat; inconclusive means small, poorly fitted or top-dose-only effect, or a change in a side signal; inactive means no such curve, though single readings can be large or run the other way; the % refers to the signal ratio; further: potency means the concentration at half of the fitted maximal effect); conditions: HeLa MMTV-bla, beta-lactamase ratio, agonist, 18 h; activation: stronger effect = higher value, percent of dexamethasone control, DMSO zero
Summary of the method: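 Quantitative HTS using CellSensor MMTV-bla HeLa cells in charcoal/dextran-treated serum; compounds tested up to 92 uM. After 18 h at 37 C, CCF4 dye reported reporter induction.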

[8] = target: Retinoic acid receptor RXR-alpha (Homo sapiens) (UniProt P19793); test: qHTS assay for small molecule agonists of retinoid X receptor alpha signaling (AID 588544); conditions: HEK293T RXRa-UAS-bla, beta-lactamase reporter, 18 h; activation: at 76.7 µM (top of the series) unless noted; further: potency means the concentration at half of the fitted maximal effect;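 on activation: 0% = DMSO basal wells and 100% = reference agonist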
[9] = qHTS assay for small molecule activators of the p53 signaling pathway (AID 651743; active means well fitted activation curve with a large enough effect in the signal ratio, not every such curve was filed as active; inconclusive means small, poorly fitted or top-dose-only effect, or a change in a side signal; the % refers to the signal ratio; further: potency means the concentration at half of the fitted maximal effect); conditions: HCT-116 p53RE-bla, beta-lactamase FRET ratio, 16 h; activation: stronger effect = higher value
Summary of the method: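 Read-out is fluorescence intensity from the LiveBLAzer B/G FRET substrate, added for 2 hours at room temperature after HCT-116 p53RE-bla cells had been incubated with compounds for 16 hours at 37 C.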

[10] = target: Glucocorticoid receptor (Homo sapiens) (UniProt P04150); test: qHTS assay for small molecule antagonists of glucocorticoid receptor signaling (AID 588533; active means well fitted inhibition curve with a large enough effect in the signal ratio, with a control signal flat, not every such curve was filed as active; inconclusive means small, poorly fitted or top-dose-only effect, or effect the other way, or a change in a side signal; the % refers to the signal ratio;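 further: cells stimulated with 2 nM dexamethasone as agonist; on the % scale 0 is the no-effect control and ±100 the full control effect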); conditions: HeLa MMTV-bla, GRE beta-lactamase ratio, antagonist mode, 18 h; activity change, negative = inhibition: at 76.8 µM (top of the series) unless noted
[11] = target: Retinoic acid receptor RXR-alpha (Homo sapiens) (UniProt P19793); test: qHTS assay for small molecule antagonists of retinoid X receptor alpha signaling (AID 588546; active means well fitted inhibition curve with a large enough effect in the signal ratio, with a control signal flat, not every such curve was filed as active; inconclusive means small, poorly fitted or top-dose-only effect, or effect the other way, or a change in a side signal; inactive means no such curve, though single readings can be large or run the other way; the % refers to the signal ratio; further: potency means the concentration at half of the fitted maximal effect;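 on max response: cells stimulated with 9-cis-retinoic acid as agonist; on the % scale 0 is the no-effect control and ±100 the full control effect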); conditions: HEK293T RXRa-UAS-bla, beta-lactamase ratio, antagonist mode
Summary of the method: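 Beta-lactamase reporter inhibition, read as CCF4 fluorescence ratio (ex 405, em 460/530 nm) after 2 h at RT. HEK293T UAS-bla cells, 2500/well, were stimulated with 9-cis-RA at 500 or 100 nM final alongside test compound for 18 h at 37 C.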

[12] = target: Vitamin D3 receptor (Homo sapiens) (UniProt P11473); test: qHTS assay for small molecule antagonists of vitamin D receptor signaling (AID 588541); conditions: HEK293T VDR-UAS-bla, beta-lactamase ratio, antagonist mode; activity change, negative = inhibition: at 76.7 µM (top of the series); further: potency means the concentration at half of the fitted maximal effect
[13] = target: Thyroid hormone receptor beta (Homo sapiens) (UniProt P10828); test: qHTS assay for small molecule antagonists of thyroid hormone receptor beta signaling (AID 588547; active means well fitted inhibition curve with a large enough effect in the signal ratio, with a control signal flat, not every such curve was filed as active; inconclusive means small, poorly fitted or top-dose-only effect, or effect the other way, or a change in a side signal; the % refers to the signal ratio; further: potency means the concentration at half of the fitted maximal effect;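 on activity change % (negative = inhibition): cells stimulated with 0.4 nM T3 agonist during compound exposure; on the % scale 0 is the no-effect control and ±100 the full control effect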); conditions: TR-UAS-bla HEK293, beta-lactamase ratio, antagonist mode, 18 h
Summary of the method: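 Inhibition of T3-driven (0.4nM final) beta-lactamase reporter activity was measured over 0.59 nM to 92 uM compound after 18 h at 37 C. The cells were GripTite HEK293 TR-UAS-bla in charcoal/dextran-stripped serum, with CCF4 ratio read-out and IC50 from Hill fits.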

[14] = qHTS assay for small molecule agonists of the antioxidant response element (ARE) signaling pathway measured by Nrf2-dependant transcriptional activity - cell viability counter screen (AID 720653; active means well fitted curve in the direction sought with a large enough effect in the repeat runs; inconclusive means weak or mixed curves; inactive means no such curve, though single readings can be large; an effect the other way counts as inactive or inconclusive; further: potency means the concentration at half of the fitted maximal effect); conditions: ARE-bla HepG2 viability, CellTiter-Glo ATP luminescence, 16 h; max response: stronger effect = lower value
Summary of the method: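 Cytotoxicity counter screen: intracellular ATP quantified by CellTiter-Glo luminescence in the same ARE-bla HepG2 plates, after 16 h compound exposure and a 2 h beta-lactamase substrate step.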

[15] = Cell Viability - LYMP1-003 - Assay at 40 hr (AID 964; active means well fitted curve in the direction sought with a large enough effect; inconclusive means small, poorly fitted or top-dose-only effect, or another doubt; inactive means no such curve, though single readings can be large; an effect the other way counts as inactive or inconclusive; further: potency means the concentration at half of the fitted maximal effect; nearly all actives have a fitted effect of over 60% in size)
Summary of the method: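 LYMP1-003 human lymphoblastoid cells, 2500/well, preincubated 5 h at 37 C, then treated with compound for 40 h at 37 C. Intracellular ATP read by CellTiter-Glo luminescence after 30 min at room temperature; AC50 from Hill-equation fits.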

[16] = Cell Viability - LYMP2-005 (AID 967; active means well fitted curve in the direction sought with a large enough effect; inconclusive means small, poorly fitted or top-dose-only effect, or another doubt; inactive means no such curve, though single readings can be large; an effect the other way counts as inactive or inconclusive; further: potency means the concentration at half of the fitted maximal effect)
Summary of the method: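 LYMP2-005 human lymphoblastoid cells (2500/well) were treated with compounds for 24 h at 37 C. Intracellular ATP was then measured by CellTiter-Glo luminescence after 30 min at room temperature. AC50 values came from Hill-equation fits of qHTS concentration-response data.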

[17] = qHTS assay for small molecule activators of the nuclear factor-kappa B (NF-kB) signaling pathway (AID 651749; active means well fitted activation curve with a large enough effect in the signal ratio; inconclusive means small, poorly fitted or top-dose-only effect, or a change in a side signal; the % refers to the signal ratio; further: potency means the concentration at half of the fitted maximal effect); conditions: NF-kB-bla ME-180 cells, beta-lactamase FRET ratio, 16 h; activation: stronger effect = higher value
Summary of the method: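 Readout: beta-lactamase reporter driven by an NF-kB response element, detected fluorescently as loss of FRET. Cells were the ME-180 line, treated 16 hr at 37C with pin-transferred compound.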
Tags describe the fitted curve by direction and shape or compound fluorescence and quenching.

Chain of UniProt Q03181 (Q03181 whole entry, looked up): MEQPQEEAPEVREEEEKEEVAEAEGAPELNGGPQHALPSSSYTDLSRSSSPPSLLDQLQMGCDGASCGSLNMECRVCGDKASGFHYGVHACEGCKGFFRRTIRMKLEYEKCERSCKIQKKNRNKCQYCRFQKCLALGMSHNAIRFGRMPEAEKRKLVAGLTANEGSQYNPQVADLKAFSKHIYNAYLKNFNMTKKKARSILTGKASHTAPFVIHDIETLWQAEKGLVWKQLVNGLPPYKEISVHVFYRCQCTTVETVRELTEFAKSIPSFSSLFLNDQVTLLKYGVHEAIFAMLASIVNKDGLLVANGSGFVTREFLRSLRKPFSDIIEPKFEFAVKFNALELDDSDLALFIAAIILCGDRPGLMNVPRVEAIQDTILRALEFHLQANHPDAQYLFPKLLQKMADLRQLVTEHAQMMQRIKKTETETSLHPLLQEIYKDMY
Chain of UniProt P19793 (P19793 whole entry, looked up): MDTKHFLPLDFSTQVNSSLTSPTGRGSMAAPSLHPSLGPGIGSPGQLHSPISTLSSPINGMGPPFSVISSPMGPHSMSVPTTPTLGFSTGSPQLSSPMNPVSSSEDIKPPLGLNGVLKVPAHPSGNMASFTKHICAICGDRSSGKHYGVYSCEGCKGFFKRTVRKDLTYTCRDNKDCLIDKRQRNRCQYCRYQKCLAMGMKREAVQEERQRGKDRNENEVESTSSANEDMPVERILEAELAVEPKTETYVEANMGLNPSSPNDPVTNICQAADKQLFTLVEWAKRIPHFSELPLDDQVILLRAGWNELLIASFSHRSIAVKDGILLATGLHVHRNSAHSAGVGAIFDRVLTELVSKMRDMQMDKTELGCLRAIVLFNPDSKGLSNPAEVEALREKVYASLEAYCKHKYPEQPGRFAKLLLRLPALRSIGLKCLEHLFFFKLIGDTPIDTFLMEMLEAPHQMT
Chain of UniProt P10828 (P10828 whole entry, looked up): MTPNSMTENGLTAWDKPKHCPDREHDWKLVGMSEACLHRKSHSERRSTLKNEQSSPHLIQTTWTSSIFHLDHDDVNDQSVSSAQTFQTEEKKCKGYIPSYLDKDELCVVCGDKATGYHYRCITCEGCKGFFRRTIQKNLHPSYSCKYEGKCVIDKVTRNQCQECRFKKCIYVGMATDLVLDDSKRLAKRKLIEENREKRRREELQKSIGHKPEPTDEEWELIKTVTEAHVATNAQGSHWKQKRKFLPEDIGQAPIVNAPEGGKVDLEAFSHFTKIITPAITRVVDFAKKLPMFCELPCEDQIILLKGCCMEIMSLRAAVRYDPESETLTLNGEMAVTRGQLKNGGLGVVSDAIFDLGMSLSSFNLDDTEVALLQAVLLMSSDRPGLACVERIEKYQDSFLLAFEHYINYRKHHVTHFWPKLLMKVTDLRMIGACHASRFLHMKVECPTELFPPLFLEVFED

Cc1ccccc1C(=O)Nc1cccc(OC(C)C)c1
Potency [1]: inactive | Potency [2]: inactive | Potency [3]: inconclusive: 28.2 µM [inhibitor, full curve, poor fit] | activity, negative = inhibition [4]: inconclusive: -39.8% | Potency [5]: inactive | Potency [6]: inconclusive: 48.6 µM [activator, partial curve, poor fit]

Cc1cccc(C)c1
Potency [7]: inconclusive: 0.0025 µM [side channel, falling, full curve, poor fit] | Potency [5]: inconclusive: 75 µM [activator, partial curve, poor fit]

CCCCC(C#N)(Cn1cncn1)c1ccc(Cl)cc1 (stereo not drawn)
activation [1]: inconclusive: -10.5% | activity change, negative = inhibition [2]: inconclusive: 24.4% | Potency [3]: inconclusive: 50.1 µM [inhibitor, single point] | activation [8]: inconclusive: 12.6% | Potency [5]: inactive and inconclusive: 30.6 µM [inhibitor, partial curve, poor fit] | Potency [9]: inconclusive: 0.1 µM [side channel, falling, full curve, poor fit]

CN/C(=N/[N+](=O)[O-])NCC1CCOC1 (stereo not drawn)
activity change, negative = inhibition [10]: inconclusive: 2.87% | Potency [2]: inactive | max response [11]: inconclusive: -33% | Potency [5]: inactive

CON=C(C(=O)OC)c1ccccc1CO/N=C(\C)c1cccc(C(F)(F)F)c1
activation [1]: inconclusive: -18% | activity change, negative = inhibition [2]: inconclusive: -55.3% | Potency [3]: inconclusive: 35.5 µM [inhibitor, partial curve, poor fit] | Potency [4]: active: 35.5 µM | Potency [12]: inconclusive: 35.5 µM [side channel, rising, partial curve] | Potency [8]: inconclusive: 28.2 µM [side channel, rising, partial curve, poor fit] | Potency [11]: inconclusive: 20 µM [inhibitor, full curve] | activity change % (negative = inhibition) [13]: inconclusive: -28.7% | Potency [5]: active: 8.63 µM | Potency [9]: active: 5.01 µM | Potency [14]: inconclusive: 10 µM [cytotoxic, full curve, poor fit]

CC(=O)OCc1ccc2c(c1)OCO2
Potency [15]: inconclusive: 50.1 µM [cytotoxic, partial curve, poor fit] | Potency [16]: inconclusive: 0.0398 µM [cytotoxic, full curve, poor fit] | Potency [7]: inconclusive: 14.1 µM [side channel, falling, partial curve, poor fit]

N#CC(Br)(Br)C(N)=O
Potency [1]: inconclusive: 44.7 µM [side channel, rising, single point] | Potency [2]: inconclusive: 44.7 µM [side channel, rising, single point] | Potency [3]: inconclusive: 50.1 µM [inhibitor, single point] | Potency [4]: inconclusive: 44.7 µM [inhibitor, single point] | Potency [12]: inconclusive: 25.1 µM [side channel, rising, single point] | Potency [11]: inconclusive: 31.6 µM [inhibitor, partial curve, poor fit] | Potency [13]: inconclusive: 28.2 µM [side channel, rising, single point] | Potency [5]: inconclusive: 48.6 µM [cytotoxic, side channel, partial curve, poor fit] | Potency [9]: inconclusive: 79.4 µM [single point] | Potency [17]: inconclusive: 44.7 µM [side channel, falling, single point] | Potency [14]: inconclusive: 70.8 µM [cytotoxic, single point]
